Data from patent US20160316790A1, “BETA-HINOKITIOL DERIVATIVES AND APPLICATIONS THEREOF IN PREPARATION OF ANIMAL ANTIBACTERIAL AGENTS AND ANTIBACTERIAL GROWTH PROMOTERS USED IN FEED” (GUANGZHOU INSIGHTER BIOTECHNOLOGY CO., LTD., priority 2013, published 2016).

Test system: riemerella anatipestifer
Assay: Protection effect against attacking and infection of riemerella anatipestifer
Settings: intramuscular
Description: 100 16-day-old cherry valley ducks were randomly divided into 10 test groups according to table 8. Each duck was injected with riemerella anatipestifer of 5×10^7 CFU via intramuscular injection for the purpose of attacking and infection, and injected with the medicines via intramuscular injection simultaneously. Morbidity and death of the tested ducks were observed, and dead ducks were subject to autopsy to verify whether the death was caused by riemerella anatipestifer infection. The observation lasted for 7 days. All tested ducks were executed at the end of the test. Autopsy were performed to confirm the morbidity. The statistic results can be seen in table 8.

CCCc1cccc(=O)c(O)c1 [IST_009_001, 2-hydroxy-4-propylcyclohepta-2,4,6-trienone]
protection of ducks against attacking and infection of riemerella anatipestifer (in words): could protect ducks against attacking and infection of riemerella anatipestifer
